The other results are listed elsewhere or left out.
System: PfHDP1 homeodomain (GST-tagged)
Assay: gcPBM binding intensity (ln(normalized median fluorescence intensity)); higher = stronger DNA binding
Summary of the method: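 An Agilent 4 × 180k array of primer-extended double-stranded 36-bp intergenic genomic probes, with negative controls, was incubated for 1 h with GST-tagged P. falciparum DNA-binding domains expressed in E. coli. Alexa488 anti-GST antibody detected bound protein, scanned at 488 nm. Binding intensity is the highest Masliner-normalised natural-log median intensity across replicate spots of either probe orientation.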

First: TATAAAAATATATTTACACACTATAAATATCGAAAG [CACACA_site6896]
Second: ATTATATATATCAGGTGTACGTAAAAAAAATGGACG [XGTACX_site1028]
The “gcPBM binding intensity (ln)” value of the first is lower: 6.38 for the first, 7.41 for the second.

Going from “AAAAGAAAAAAAAGTACACACATGTATATTAAGCGT [CACACA_site5402]” to “TTAATGTACAGACACCCACACACAAACAAATATATA [CACACA_site8888]”, the “gcPBM binding intensity (ln)” value rises from 6.63 to 7.11.

First: GCGTGCGTGTACTTAACACACATAATATGTATTTAT [CACACA_site1247]
Second: TTTTTTTTTCCCCCATGTACATAAATAAGTATATCT [XGTACX_site6965]
The “gcPBM binding intensity (ln)” value of the first is lower: 6.64 for the first, 7.43 for the second.

First: CTTTCATTTCTATCTACACACATATTTTTTCCAAGT [CACACA_site2972]
Second: ATATGTACTATACGCACACACACTCACATATATATA [CACACA_site3239]
The “gcPBM binding intensity (ln)” value of the first is lower: 6.89 for the first, 8.19 for the second.

Compared with “AATTATATGAAATAAACACACATATGCAATATTGCA [CACACA_site6988]”, “TATATATATAAATACAGTACATATATAATATTTTGA [XGTACX_site637]” is lower in “gcPBM binding intensity (ln)” value: 7.22 for the first, 7.02 for the second.

Compared with “TAACTTAATTTTAATGCACACAATTTATATATATAT [CACACA_site6022]”, “AAAAATATATATATATATATATATATATTATTTTTT [TGCATGCA_negctrl_site378]” is lower in “gcPBM binding intensity (ln)” value: 10.5 for the first, 7 for the second.

Compared with “TTCAAGATTTATTATACACACATATTAAAATATATA [CACACA_site4479]”, “AAAAAATTATTATGAACACACATTTATTATATTCAT [CACACA_site1566]” is lower in “gcPBM binding intensity (ln)” value: 6.61 for the first, 6.03 for the second.

First: AATCTATCAAAGTGTACATGCAATAAAAAAAAAAAA [TGCATGCA_site103]
Second: AAACATTTTCATTTGACACACATCATATATTTATAT [CACACA_site1794]
The “gcPBM binding intensity (ln)” value of the first is lower: 6.74 for the first, 6.76 for the second.

Going from “ATATATATATAAATATGTACATATATATATTATATA [XGTACX_site120]” to “TATAAGATTATACAAAGTACATATAAATAATATATT [XGTACX_site1917]”, the “gcPBM binding intensity (ln)” value falls from 8.27 to 5.96.

First: ATGGGTTAAAAATGCACACAAAAAAATATACAGATA [CACACA_site4321]
Second: TGAAATAAAAAATATAGTACTCGTTCGTAACCAAAA [XGTACX_site413]
The “gcPBM binding intensity (ln)” value of the first is higher: 9.78 for the first, 6.17 for the second.

First: TTAAAAAAAGATTATACACACACATATATAAACATA [CACACA_site8136]
Second: TCCTCTTTTATTTTTACACACGCGTAAACATATATA [CACACA_site667]
The “gcPBM binding intensity (ln)” value of the first is lower: 6.7 for the first, 7.32 for the second.

Compared with “TGTATTAATAAAAATACACACATCATATTATAGAAA [CACACA_site7629]”, “TTTATACTATAATTATGTACTTATAAAAGGAATAAA [XGTACX_site8027]” is lower in “gcPBM binding intensity (ln)” value: 6.45 for the first, 6.44 for the second.

First: TATATAAATATACATTGTACTCAACATTTTCATTAA [XGTACX_site3690]
Second: ATAAACACATCTATATGTACATATATATATATATAC [XGTACX_site347]
The “gcPBM binding intensity (ln)” value of the first is lower: 6.21 for the first, 6.72 for the second.

Compared with “ATGTAAATACATATATGTACACAAATATATATATAT [XGTACX_site3537]”, “TATATTAAATAAAAAGTGCATGTCTCATAAGATGGA [GTGCAC_site9520]” is lower in “gcPBM binding intensity (ln)” value: 9.01 for the first, 7.24 for the second.

First: ATAAAATGTTAAGGGTGTACTTTACACATCTCCTAT [XGTACX_site4699]
Second: TATAAATAAAGCAGTACACACATTTATTTTAGATAC [CACACA_site7566]
The “gcPBM binding intensity (ln)” value of the first is lower: 6.3 for the first, 6.46 for the second.

First: ATAGGGAATTTATGCACACAGTTAAGGGGGAAAATT [CACACA_site5183]
Second: TTATATTATTTTTATACATGCATTTCTATATATTTT [TGCATGCA_site164]
The “gcPBM binding intensity (ln)” value of the first is higher: 9.92 for the first, 7.13 for the second.

Compared with “AAGAAAAAATATATATATATATATATATATAATATG [TGCATGCA_negctrl_site417]”, “ATTTGTGATTTGTGTGTGCACGTATTTACAGAACAA [GTGCAC_site9498]” is higher in “gcPBM binding intensity (ln)” value: 7.32 for the first, 9.53 for the second.

Going from “ATATATAAGGATGTCACACATAAATATTAACACTAA [CACACA_site5101]” to “ACATAATTAACAAATACACACACACCCACCCACAAA [CACACA_site8069]”, the “gcPBM binding intensity (ln)” value rises from 6.39 to 7.85.

First: TTCAATTTTTTATGAACACACAAAAAAAAAAAAAAA [CACACA_site2533]
Second: TATGATATATATAATACACACATATACATAAGATCT [CACACA_site1119]
The “gcPBM binding intensity (ln)” value of the first is lower: 6.18 for the first, 6.75 for the second.

First: AATATATATATATTATCACACACTCACGTTTGACAA [CACACA_site8130]
Second: ATTATATCATATATATGTACACATATATAACATGAT [XGTACX_site7]
The “gcPBM binding intensity (ln)” value of the first is lower: 6.41 for the first, 6.43 for the second.

Going from “TAAAAAAAACGAACAAGTACACATAAAAAAAAATTA [XGTACX_site5982]” to “TATTCATAATTTTAATGTACAAAATGGTTTGTAATA [XGTACX_site8493]”, the “gcPBM binding intensity (ln)” value rises from 6.2 to 6.3.

First: TTGTAATTTATTCAAACACACAATTTGGACCTTTTT [CACACA_site1063]
Second: AAAGATAAATTAAAAAGTACATATTTATTCAATGTA [XGTACX_site8543]
The “gcPBM binding intensity (ln)” value of the first is higher: 6.05 for the first, 6.01 for the second.
